Changes are numbered by the printed parent chain; changes in the protein carry UniProt numbers. Some of the results follow.
T1: RBFOX1 RRM RbFoxmut (Fox-RRM*) (Homo sapiens, UniProt Q9NWB1 109-208, R118D;E147R;N151S;E152T)
T1 sequence: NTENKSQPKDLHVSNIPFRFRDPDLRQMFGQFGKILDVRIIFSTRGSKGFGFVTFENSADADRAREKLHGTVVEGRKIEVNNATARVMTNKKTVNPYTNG

B1: AUUACGC (DNA:RNA)
RNA: GGGAGACCGGAAUUCAGAUUGUCCAUUACGCUUAAAUCCCGUCGUAGCCACCA
DNA 1: CAATCTGAATTCCGGTCTCCC
DNA 2: TGGTGGCTACGACGGGATT
B2: CGGCAAA (DNA:RNA)
RNA: GGGAGACCGGAAUUCAGAUUGUCCCGGCAAAUUAAAUCCCGUCGUAGCCACCA
DNA 1: CAATCTGAATTCCGGTCTCCC
DNA 2: TGGTGGCTACGACGGGATT
B3: AGAACUA (DNA:RNA)
RNA: B1 RNA with U26G, U27A, G30U, C31A
DNA 1: CAATCTGAATTCCGGTCTCCC
DNA 2: TGGTGGCTACGACGGGATT
B4: GCGAGUC (DNA:RNA)
RNA: B1 RNA with A25G, U26C, U27G, C29G, G30U
DNA 1: CAATCTGAATTCCGGTCTCCC
DNA 2: TGGTGGCTACGACGGGATT
B5: CUACGUU (DNA:RNA)
RNA: B2 RNA with G26U, G27A, A29G, A30U, A31U
DNA 1: CAATCTGAATTCCGGTCTCCC
DNA 2: TGGTGGCTACGACGGGATT
B6: UAGUCAC (DNA:RNA)
RNA: B1 RNA with A25U, U26A, U27G, A28U, G30A
DNA 1: CAATCTGAATTCCGGTCTCCC
DNA 2: TGGTGGCTACGACGGGATT
B7: UACAGUG (DNA:RNA)
RNA: B1 RNA with A25U, U26A, U27C, C29G, G30U, C31G
DNA 1: CAATCTGAATTCCGGTCTCCC
DNA 2: TGGTGGCTACGACGGGATT
B8: CGAUUGA (DNA:RNA)
RNA: B2 RNA with G27A, C28U, A29U, A30G
DNA 1: CAATCTGAATTCCGGTCTCCC
DNA 2: TGGTGGCTACGACGGGATT
B9: CUUCCUC (DNA:RNA)
RNA: B1 RNA with A25C, A28C, G30U
DNA 1: CAATCTGAATTCCGGTCTCCC
DNA 2: TGGTGGCTACGACGGGATT
B10: CUACGAG (DNA:RNA)
RNA: B2 RNA with G26U, G27A, A29G, A31G
DNA 1: CAATCTGAATTCCGGTCTCCC
DNA 2: TGGTGGCTACGACGGGATT
B11: CCAGCAC (DNA:RNA)
RNA: B1 RNA with A25C, U26C, U27A, A28G, G30A
DNA 1: CAATCTGAATTCCGGTCTCCC
DNA 2: TGGTGGCTACGACGGGATT
B12: GAUAAGC (DNA:RNA)
RNA: B1 RNA with A25G, U26A, C29A
DNA 1: CAATCTGAATTCCGGTCTCCC
DNA 2: TGGTGGCTACGACGGGATT
B13: GCCCGCC (DNA:RNA)
RNA: B1 RNA with A25G, U26C, U27C, A28C, C29G, G30C
DNA 1: CAATCTGAATTCCGGTCTCCC
DNA 2: TGGTGGCTACGACGGGATT
B14: CCCUUCA (DNA:RNA)
RNA: B2 RNA with G26C, G27C, C28U, A29U, A30C
DNA 1: CAATCTGAATTCCGGTCTCCC
DNA 2: TGGTGGCTACGACGGGATT
B15: AUCCUCA (DNA:RNA)
RNA: B1 RNA with U27C, A28C, C29U, G30C, C31A
DNA 1: CAATCTGAATTCCGGTCTCCC
DNA 2: TGGTGGCTACGACGGGATT
B16: GCUCUGU (DNA:RNA)
RNA: B1 RNA with A25G, U26C, A28C, C29U, C31U
DNA 1: CAATCTGAATTCCGGTCTCCC
DNA 2: TGGTGGCTACGACGGGATT
B17: AUAGGCC (DNA:RNA)
RNA: B1 RNA with U27A, A28G, C29G, G30C
DNA 1: CAATCTGAATTCCGGTCTCCC
DNA 2: TGGTGGCTACGACGGGATT
B18: UCCAAGA (DNA:RNA)
RNA: B1 RNA with A25U, U26C, U27C, C29A, C31A
DNA 1: CAATCTGAATTCCGGTCTCCC
DNA 2: TGGTGGCTACGACGGGATT
B19: CCCUGGC (DNA:RNA)
RNA: B1 RNA with A25C, U26C, U27C, A28U, C29G
DNA 1: CAATCTGAATTCCGGTCTCCC
DNA 2: TGGTGGCTACGACGGGATT
B20: CCACGUG (DNA:RNA)
RNA: B2 RNA with G26C, G27A, A29G, A30U, A31G
DNA 1: CAATCTGAATTCCGGTCTCCC
DNA 2: TGGTGGCTACGACGGGATT

These binders were tested against T1, RBFOX1 RRM RbFoxmut (Fox-RRM*) (assay: EMSA; HiTS-Eq, 1 nM pool, 10 min; buffer printed only for the single-RNA assays: 10 mM Tris pH 7.5, 150 mM NaCl, 3.4 mM EDTA, 0.001% NP-40, 30 C). Conditions: tags: His6 N-terminal (pET28a); label: 5' 32P.
Procedure, shortened: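 Purified wild-type or mutant RbFox RRM at increasing concentrations was equilibrated with 1 nM of 5′-radiolabelled RNA carrying 7 randomized nucleotides for 10 min in 50 µL. Unbound RNA was separated by 8% native PAGE and sequenced. Relative association constants came from read-count changes of each RNA species compared with the control reaction, normalised to the cognate motif.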

Binder | binding signal
B1 | 0.109 KA relative to UGCAUGU
B2 | 0.0857 KA relative to UGCAUGU
B3 | 0.0901 KA relative to UGCAUGU
B4 | 0.111 KA relative to UGCAUGU
B5 | 0.112 KA relative to UGCAUGU
B6 | 0.0921 KA relative to UGCAUGU
B7 | 0.0646 KA relative to UGCAUGU
B8 | 0.184 KA relative to UGCAUGU
B9 | 0.087 KA relative to UGCAUGU
B10 | 0.0812 KA relative to UGCAUGU
B11 | 0.129 KA relative to UGCAUGU
B12 | 0.076 KA relative to UGCAUGU
B13 | 0.0938 KA relative to UGCAUGU
B14 | 0.0901 KA relative to UGCAUGU
B15 | 0.119 KA relative to UGCAUGU
B16 | 0.102 KA relative to UGCAUGU
B17 | 0.172 KA relative to UGCAUGU
B18 | 0.109 KA relative to UGCAUGU
B19 | 0.109 KA relative to UGCAUGU
B20 | 0.125 KA relative to UGCAUGU

Source: paper PMC9911399, “Two distinct binding modes provide the RNA-binding protein RbFox with extraordinary sequence specificity”
